# This is one part of the list. At the low end of the ranking the order means little.
# Test system: T1, GST-NbGlk1(82-244)
# T1 sequence: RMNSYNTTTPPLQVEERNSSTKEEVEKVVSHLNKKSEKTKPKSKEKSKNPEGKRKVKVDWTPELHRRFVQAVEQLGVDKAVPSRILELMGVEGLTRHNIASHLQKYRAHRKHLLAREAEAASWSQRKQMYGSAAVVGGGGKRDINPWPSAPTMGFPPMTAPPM
# Assay: protein-binding microarray;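 note: rank-based score ranging −0.5 to +0.5 with E above 0.45 taken as significant binding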
# Conditions: NbGlk1 is a Golden2-like transcription factor of Nicotiana benthamiana; high values mean tight binding; most listed sequences are background and not binding sites; double strand, one strand shown
row,Sequence,binding signal [E-score]
1,CAACTGCC,-0.155
2,ACACGTCA,-0.13
3,AGCAACAC,-0.121
4,AGGCAAGC,-0.358
5,AGGTAAGG,-0.0855
6,ATTCTAAA,0.221
7,AGTCGCAC,-0.127
8,ATTGTCTA,0.157
9,AGACGCAC,-0.161
10,ACATTGGT,-0.0909
11,AGACTTAT,-0.0915
12,AATAATGA,0.172
13,ATAAAATC,0.409
14,ACTCATTA,0.118
15,CACCGAAG,-0.0468
16,CAATGCTA,-0.0546
17,AAGTGTAC,-0.161
18,ATGGGGGG,-0.312
19,AGCTCGAC,-0.159
20,ACCTACGA,0.03
21,ATTGACAA,0.182
22,CAAGTGAG,0.0179
23,ACGAGGGG,-0.22
24,ATATGAAT,0.209
25,AAGGTTTG,-0.124

row,Sequence,binding signal [E-score]
1,ACGTGTTA,-0.034
2,ACTTTAAT,0.0735
3,CAAGGAGC,-0.263
4,AATGCGCC,-0.12
5,CACAGCTC,-0.236
6,AGCTGATA,0.154
7,AAGTGGAA,0.0389
8,ACCAGCTG,-0.204
9,ATGATCGG,-0.0584
10,ATCCACGC,0.276
11,CACAGAAC,-0.0851
12,ATAGCAAT,0.321
13,ACCCCATG,-0.147
14,ATAGCGTA,0.266
15,CAACCCTA,-0.107
16,ACTACACT,0.0157
17,AATTTGGG,0.141
18,ACTCGGCA,-0.178
19,AATTCATG,0.0557
20,AGACTCCT,-0.287
21,ACTGACAT,-0.0224
22,AATCGCTA,0.224
23,AAAATGTA,-0.0355
24,ACGAATCG,0.283
25,AAGCTTGT,-0.113

row,Sequence,binding signal [E-score]
1,AGGGATAA,0.0121
2,ACACAAAC,-0.0227
3,AACATCGA,0.127
4,AAGTCTCC,-0.353
5,ATATTAAT,0.279
6,CACAAGAC,-0.14
7,ACATACTC,-0.148
8,AGGCCGTC,-0.238
9,AGGACACA,-0.166
10,AGCCAGAT,0.135
11,AGAGCAAC,-0.179
12,AAGTGCTA,-0.0981
13,CAAGAAAG,-0.0952
14,AGAGCAAG,-0.0846
15,CACTGGCG,-0.173
16,ATTCGGCC,0.0107
17,ACCATGGG,-0.263
18,ACCCTGGC,-0.126
19,CAATCACA,0.205
20,AATGGGCT,-0.0624
21,AACTCGCG,-0.0644
22,AATAGGGA,0.0727
23,AGACGTCG,-0.0485
24,AGCTCAGG,-0.172
25,ATATCCTA,0.416

row,Sequence,binding signal [E-score]
1,AGATAGAC,-0.205
2,ACGCGCGC,0.00708
3,ACCCATGA,-0.14
4,ACCCTAAA,-0.0544
5,CACCCTGA,-0.145
6,ATAATTTG,0.1
7,ACTGTGTC,-0.194
8,AAGCGGAA,-0.0835
9,AATGGACG,-0.181
10,AGAGAGTG,-0.113
11,ATTGACGC,-0.111
12,CACAGGGG,-0.182
13,AGGTGACT,-0.184
14,ATTGCCCC,0.205
15,ACCTTTCA,-0.0237
16,ATGCAGGG,-0.0605
17,AATCATCT,0.205
18,ACGAGACC,-0.146
19,ACCATCCC,-0.0883
20,ACCAGTCC,-0.216
21,ACACGTAC,-0.0654
22,AAGTCGGT,-0.138
23,CAGCGGTA,-0.0864
24,ACCCGTGA,-0.162
25,ATGTGTCA,0.0296

row,Sequence,binding signal [E-score]
1,ATCGGTTC,0.0759
2,ATTATCTC,0.111
3,ACACGACG,-0.176
4,AGGTGAGA,-0.0917
5,ATTGGTCG,0.0891
6,CACCGTTC,-0.121
7,ACGATTTC,0.411
8,AATTTACT,0.126
9,CAATTCCG,0.0442
10,ACCACTAG,-0.153
11,ACTGGCGA,0.0256
12,AGTAATTA,0.221
13,AAAGGAGA,-0.11
14,ATTAACGG,-0.0595
15,CACTGCGG,-0.134
16,ACCACTCC,-0.173
17,ATAGAAAG,0.00555
18,AGCAGATC,0.328
19,AGGAAGAA,-0.0899
20,ATTAACGC,-0.115
21,AAAGCGGC,-0.224
22,AGTATGAC,-0.0147
23,ACCTCGAT,0.123
24,AGTGTAAA,0.0865
25,AGCCCATA,0.0017

row,Sequence,binding signal [E-score]
1,AAGCATAG,-0.0738
2,ACTACCCG,-0.0898
3,AACTATAA,0.0486
4,ATGGTTAC,-0.124
5,ACGCATAC,0.061
6,AATCCCGA,0.358
7,AAATGCGC,0.106
8,ATTTCCTA,0.358
9,AAAGCATA,-0.0316
10,AAAGAGGT,-0.0687
11,AGCACGAG,-0.146
12,ATCATCAC,0.118
13,ACATGCCG,-0.102
14,AACAGAAA,0.183
15,AAGCGTAA,0.121
16,AGTACCGA,-0.118
17,AATCAAAC,0.25
18,AAGTTCCA,-0.168
19,AAATAATA,0.227
20,AGTCGTTC,-0.0623
21,AAGGCGGT,-0.159
22,ATAAATGG,-0.077
23,ACGTACAT,-0.0329
24,ATTCTCGC,0.232
25,AAGGAATC,0.396

row,Sequence,binding signal [E-score]
1,AGGTGAGC,-0.148
2,AGCCGTAA,-0.056
3,ACTTGGCA,-0.244
4,AATCTGCT,0.37
5,ATTTCATA,0.353
6,AAAGCCAT,-0.187
7,ACGGCCAG,-0.194
8,ACGATTGC,0.345
9,CAGATCCG,0.266
10,AAAGATCC,0.292
11,ACAACGAA,0.0437
12,AAGTCACG,-0.0811
13,AGACTGTA,-0.127
14,ATGCCCCA,-0.139
15,ATGGGAGA,-0.0374
16,AGTCGAAC,-0.152
17,ACAAAAGA,0.0752
18,AGTTTTAT,0.0696
19,AATTGGGA,0.0189
20,ATCGGCCG,0.0725
21,AGCGTCTG,-0.0542
22,ATGGCCCG,-0.353
23,AAGAACTT,-0.0502
24,ATTGATGA,-0.0144
25,ATTCCCGA,0.333

row,Sequence,binding signal [E-score]
1,ATAAATTA,0.187
2,AGCCATGC,-0.272
3,AGCAGAAG,-0.295
4,ACAGAGTG,-0.154
5,AAACACGA,0.14
6,AGCTTAGC,-0.117
7,AGCATCAA,0.0211
8,ACTATCAT,0.153
9,AGCATCAG,-0.0305
10,AGTGTTCC,-0.158
11,AAAGAGCG,-0.0069
12,ACAACCTG,-0.172
13,ACTTCGTG,-0.0465
14,CAGATTTA,0.276
15,CAACGTCG,-0.115
16,AGTTGTCG,-0.102
17,ATAAGACG,-0.0889
18,ACACTCGG,-0.108
19,AAGCACCG,-0.115
20,ACCACGTA,-0.0477
21,ACACTCGA,-0.124
22,ACGGCCAC,-0.299
23,CAACAGCG,-0.0646
24,AAAATCGT,0.39
25,ATTCAACA,0.0683

row,Sequence,binding signal [E-score]
1,AATGCACG,-0.169
2,ACCTGATG,0.0193
3,ACGCCCGG,-0.313
4,CAAGCCGG,-0.216
5,ACCGACGT,-0.0258
6,AAAACGTA,0.165
7,AGTAACAG,-0.0794
8,AGTTCGCC,-0.138
9,AGACTTGA,-0.108
10,ATCACAAA,0.225
11,AACAATGA,-0.00435
12,AGGTTATA,-0.0423
13,ACGGACGT,-0.0226
14,ACTCCGGA,-0.0762
15,AGGTCGGC,-0.321
16,CAAAGACG,-0.0469
17,ATAGCCGC,-0.0878
18,ATCTTGAC,0.272
19,AACCCCCG,-0.235
20,AGAACGTA,-0.0132
21,ACCGAACC,-0.0587
22,AGTCCTCA,-0.14
23,ATAAAGAA,0.099
24,AACCTAGG,-0.0178
25,ACGGGAAC,-0.261

row,Sequence,binding signal [E-score]
1,CAAGAGCG,-0.0565
2,AACTGTGA,0.0957
3,ACGCCAGT,-0.262
4,AGACTTGG,-0.209
5,AGCACGTA,0.0221
6,CACACGCC,-0.14
7,AGCTCTGA,-0.129
8,ATTATTAC,0.253
9,AGAAATTG,0.139
10,AGCCGACG,-0.167
11,AGGTCGAC,-0.194
12,ATCCGGGC,0.118
13,AACAGCTC,-0.0881
14,ACATTCGC,-0.0117
15,AATGACCA,-0.185
16,AATTTGAG,0.117
17,ACACCGCC,-0.0477
18,ACCCGATA,0.104
19,ACTCTAAA,0.129
20,ATTAGCCC,-0.185
21,CACCGGTG,-0.263
22,ATCCCAGG,-0.00596
23,ACCGGTTC,-0.187
24,AGGTGGTC,-0.27
25,AATTCGGG,0.154

row,Sequence,binding signal [E-score]
1,ACAGCTTA,-0.131
2,ACGGACAG,-0.114
3,ATTAGCTC,0.0523
4,ACCGGTTG,-0.29
5,CAGATATG,0.393
6,AGCGAGCC,-0.309
7,ATCTGGCG,0.306
8,ACTCTTAT,0.0778
9,ACTAAAGC,-0.247
10,CACCAGCG,-0.199
11,AAGCTAAA,0.0161
12,ACTATGAC,-0.082
13,AAGGAATA,0.168
14,ATATCAAT,0.281
15,ATGTCTTC,-0.102
16,ACAGTCGG,-0.0618
17,ATACCCTA,0.146
18,ATGGTGAG,-0.0314
19,AAAGCTGC,-0.14
20,CAACGGAG,-0.185
21,AGAGGCAA,-0.0585
22,AGAGAGCC,-0.313
23,ATGAATTG,0.162
24,ATTAGTTC,-0.0948
25,ACATATCG,0.226

row,Sequence,binding signal [E-score]
1,ATCTTTGG,0.304
2,AATCGGCG,0.219
3,CACTGTGG,-0.0646
4,AGGGCTAG,-0.262
5,ACCGCGAT,0.295
6,ACGAGAGA,0.0637
7,ATCTAGCA,0.322
8,AGGCGCAG,-0.128
9,AACGTCAG,-0.114
10,ATAGGTAC,-0.137
11,ACAGCGTC,-0.287
12,CACAAACG,-0.0826
13,ATCCCGCC,0.175
14,AAGTAATG,-0.0469
15,AACAGTGC,-0.0192
16,CAACCCCC,-0.319
17,AGGGGGGG,-0.353
18,AGTCCCAC,-0.236
19,ATATAACA,0.214
20,CAATACTG,0.0826
21,AGCCAAAC,-0.191
22,AGTGGACG,-0.137
23,ATTTGTCG,0.172
24,AAGGACGG,-0.173
25,ACCGCGGG,-0.0466

row,Sequence,binding signal [E-score]
1,AAGTAGTA,0.0158
2,ATTGCGCA,0.301
3,ATAGGTAA,0.154
4,CACCGCCG,-0.114
5,AACGCGAG,-0.123
6,CAACAAGA,-0.0107
7,AAGGAACT,-0.138
8,AATGCACC,-0.114
9,ATTTTCCC,0.304
10,AGATTCTG,0.469
11,ATCCATTG,0.253
12,AGTCAACG,-0.177
13,ACCTTTCT,-0.15
14,AGCGTGGG,-0.125
15,ACGCAGAA,0.0169
16,ATGACGGA,0.0937
17,ACGTGCCA,-0.0746
18,CAACTGCG,-0.0688
19,CACCTCGC,-0.238
20,ATCGGCAA,0.216
21,CACAGCGA,0.0147
22,CACGCATG,-0.216
23,AAAGAAAC,-0.0207
24,AGCCTCTA,-0.205
25,ACTGCCGA,-0.00102

row,Sequence,binding signal [E-score]
1,AATATCAA,0.322
2,CAAAATGA,0.0909
3,AGCTGCTG,-0.126
4,ATGGGAGC,-0.271
5,ACATCTGC,-0.0263
6,AGCTGGAC,-0.26
7,AAGACTAA,-0.00376
8,ACTCTCGC,-0.145
9,ATCCAATG,0.213
10,AAACCGCA,-0.0413
11,ACGTCCGG,-0.0995
12,AAATATTC,0.306
13,AGGTCTTA,-0.197
14,ATCTCGCC,0.314
15,AAATAGGG,-0.122
16,AGCCAAAT,0.0454
17,ACTATTCA,-0.0686
18,AAATACGT,0.267
19,AAGTAATC,0.337

# From PMC5836133
